Laboratory results taken from ChEMBL document CHEMBL4043168, “The design and SAR of a novel series of 2-aminopyridine based LRRK2 inhibitors” (Bioorg Med Chem Lett, 2017).

Assays:
[1] = target: Ribosomal protein S6 kinase alpha-3 (Homo sapiens) (UniProt P51812); test: Inhibition of RSK2 domain2 conserved Lys2 (DLKPSNILYVDESGNPESIR) in human PBMC at 1 uM
[2] = target: RAC-gamma serine/threonine-protein kinase (Homo sapiens) (UniProt Q9Y243); test: Inhibition of AKT3 labeling at conserved Lys1 (IGHYILGDTLGVGTFGKVK) in human PBMC at 0.1 uM
[3] = target: Cyclin-dependent kinase 1 (Homo sapiens) (UniProt P06493); test: Inhibition of CDC2 labeling at conserved Lys2 (DLKPQNLLIDDKGTIK) in human PBMC at 1 uM
Sequence of UniProt P06493 (P06493 whole entry, looked up): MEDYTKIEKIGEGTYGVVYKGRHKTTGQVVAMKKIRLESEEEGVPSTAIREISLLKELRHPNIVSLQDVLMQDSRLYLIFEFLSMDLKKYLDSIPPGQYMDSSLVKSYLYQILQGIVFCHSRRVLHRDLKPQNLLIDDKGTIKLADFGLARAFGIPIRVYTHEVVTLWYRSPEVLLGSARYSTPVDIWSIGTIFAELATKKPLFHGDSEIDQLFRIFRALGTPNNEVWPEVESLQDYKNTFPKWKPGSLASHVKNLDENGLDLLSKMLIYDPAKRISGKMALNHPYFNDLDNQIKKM

[4] = target: TRAF2 and NCK-interacting protein kinase (Homo sapiens) (UniProt Q9UKE5); test: Inhibition of ZC2/TNIK conserved Lys2 (DIKGQNVLLTENAEVK) in human PBMC at 1 uM
[5] = target: Receptor-interacting serine/threonine-protein kinase 3 (Homo sapiens) (UniProt Q9Y572); test: Inhibition of RIPK3 conserved Lys2 (DLKPSNVLLDPELHVK) in human PBMC at 0.1 uM
[6] = target: Eukaryotic elongation factor 2 kinase (Homo sapiens) (UniProt O00418); test: Inhibition of eEF2K ATP binding site (YIKYNSNSGFVR) in human PBMC at 0.1 uM
[7] = target: Cyclin-dependent kinase 1 (Homo sapiens) (UniProt P06493); test: Inhibition of CDC2 labeling at conserved Lys2 (DLKPQNLLIDDK) in human PBMC at 1 uM
[8] = target: Tyrosine-protein kinase Lyn (Homo sapiens) (UniProt P07948); test: Inhibition of LYN activation Loop (EGAKFPIKWTAPEAINFGCFTIK) in human PBMC at 1 uM
[9] = target: Cyclin-dependent kinase 7 (Homo sapiens) (UniProt P50613); test: Inhibition of CDK7 labeling at conserved Lys2 (DLKPNNLLLDENGVLK) in human PBMC at 0.1 uM
[10] = target: Serine/threonine-protein kinase Nek9 (Homo sapiens) (UniProt Q8TD19); test: Inhibition of NEK9 conserved Lys1 (RTEDDSLVVWKEVDLTR) in human PBMC at 1 uM
Sequence of UniProt Q8TD19 (Q8TD19 whole entry): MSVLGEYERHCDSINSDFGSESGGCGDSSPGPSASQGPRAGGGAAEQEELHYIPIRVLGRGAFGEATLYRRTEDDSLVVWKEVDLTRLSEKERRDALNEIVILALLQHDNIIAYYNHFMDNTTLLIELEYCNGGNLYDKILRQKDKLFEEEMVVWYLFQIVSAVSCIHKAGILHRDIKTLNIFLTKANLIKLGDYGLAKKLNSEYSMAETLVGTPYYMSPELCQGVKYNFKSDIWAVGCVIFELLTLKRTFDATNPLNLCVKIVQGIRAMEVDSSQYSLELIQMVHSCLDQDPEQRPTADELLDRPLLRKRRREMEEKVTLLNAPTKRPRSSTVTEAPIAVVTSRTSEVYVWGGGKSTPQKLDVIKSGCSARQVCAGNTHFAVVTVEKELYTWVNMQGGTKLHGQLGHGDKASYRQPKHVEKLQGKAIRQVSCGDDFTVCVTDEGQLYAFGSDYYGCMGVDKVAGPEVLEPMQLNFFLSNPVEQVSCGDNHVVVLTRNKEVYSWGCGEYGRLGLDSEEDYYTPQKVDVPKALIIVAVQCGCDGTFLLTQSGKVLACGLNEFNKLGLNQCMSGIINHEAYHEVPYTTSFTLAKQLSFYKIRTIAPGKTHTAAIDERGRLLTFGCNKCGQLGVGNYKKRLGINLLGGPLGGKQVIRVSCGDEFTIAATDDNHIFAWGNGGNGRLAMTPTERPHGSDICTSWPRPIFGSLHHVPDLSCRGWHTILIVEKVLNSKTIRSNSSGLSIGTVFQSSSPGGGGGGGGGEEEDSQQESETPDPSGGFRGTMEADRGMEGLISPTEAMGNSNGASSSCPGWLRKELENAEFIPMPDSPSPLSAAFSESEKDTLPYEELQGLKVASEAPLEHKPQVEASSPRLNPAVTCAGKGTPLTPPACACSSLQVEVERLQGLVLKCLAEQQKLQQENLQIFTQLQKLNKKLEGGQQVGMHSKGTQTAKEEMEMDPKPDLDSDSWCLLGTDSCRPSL

[11] = target: Serine/threonine-protein kinase mTOR (Homo sapiens) (UniProt P42345); test: Inhibition of FRAP conserved Lys1 (IQSIAPSLQVITSKQRPR) in human PBMC at 0.1 uM
[12] = target: Cyclin-dependent kinase 16 (Homo sapiens) (UniProt Q00536); test: Inhibition of PCTAIRE1 conserved Lys2 (DLKPQNLLINER) in human PBMC at 0.1 uM
[13] = target: Interferon-induced, double-stranded RNA-activated protein kinase (Homo sapiens) (UniProt P19525); test: Inhibition of PKR conserved Lys2 (DLKPSNIFLVDTK) in human PBMC at 1 uM
Sequence of UniProt P19525 (P19525 whole entry): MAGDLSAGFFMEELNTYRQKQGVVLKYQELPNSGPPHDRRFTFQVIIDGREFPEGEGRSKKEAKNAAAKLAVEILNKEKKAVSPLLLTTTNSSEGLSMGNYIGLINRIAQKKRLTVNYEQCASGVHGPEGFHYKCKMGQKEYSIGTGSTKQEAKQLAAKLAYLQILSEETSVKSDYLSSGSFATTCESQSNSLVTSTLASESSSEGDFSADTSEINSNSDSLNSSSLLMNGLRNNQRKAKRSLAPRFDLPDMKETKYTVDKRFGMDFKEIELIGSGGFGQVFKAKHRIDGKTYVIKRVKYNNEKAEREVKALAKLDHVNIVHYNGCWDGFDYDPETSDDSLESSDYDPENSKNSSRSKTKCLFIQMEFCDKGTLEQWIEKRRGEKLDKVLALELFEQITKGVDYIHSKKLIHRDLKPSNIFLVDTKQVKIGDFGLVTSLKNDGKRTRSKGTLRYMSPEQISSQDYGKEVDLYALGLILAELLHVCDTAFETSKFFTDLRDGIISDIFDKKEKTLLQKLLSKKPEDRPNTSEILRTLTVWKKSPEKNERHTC

[14] = target: Interferon-induced, double-stranded RNA-activated protein kinase (Homo sapiens) (UniProt P19525); test: Inhibition of PKR activation Loop (IGDFGLVTSLKNDGKR) in human PBMC at 0.1 uM
[15] = target: Tyrosine-protein kinase ABL2 (Homo sapiens) (UniProt P42684); test: Inhibition of ARG labeling at conserved Lys1 (LMTGDTYTAHAGAKFPIK) in human PBMC at 0.1 uM
[16] = target: T1, Scaffold protein ILK (Homo sapiens) (UniProt Q13418); test: Inhibition of ILK Protein Kinase Domain (ISMADVKFSFQCPGR) in human PBMC at 1 uM
T1 sequence (whole entry): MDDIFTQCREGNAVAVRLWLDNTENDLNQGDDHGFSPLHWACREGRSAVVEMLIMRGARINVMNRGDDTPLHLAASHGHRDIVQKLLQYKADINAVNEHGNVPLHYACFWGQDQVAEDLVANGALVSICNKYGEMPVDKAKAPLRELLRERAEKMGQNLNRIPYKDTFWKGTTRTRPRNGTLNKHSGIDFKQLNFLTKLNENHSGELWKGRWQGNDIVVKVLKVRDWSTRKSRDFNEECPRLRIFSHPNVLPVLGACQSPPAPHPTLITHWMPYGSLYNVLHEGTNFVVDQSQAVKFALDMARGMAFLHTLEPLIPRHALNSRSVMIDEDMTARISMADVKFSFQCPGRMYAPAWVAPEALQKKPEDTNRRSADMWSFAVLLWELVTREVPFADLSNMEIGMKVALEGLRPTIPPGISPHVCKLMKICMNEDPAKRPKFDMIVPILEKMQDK

[17] = Intrinsic clearance in human liver microsomes; type: ADME, microsome; settings: read-out: CLH (converted)
[18] = target: Ribosomal protein S6 kinase alpha-2 (Homo sapiens) (UniProt Q15349); test: Inhibition of RSK3 domain1 conserved Lys2 (DLKPENILLDEEGHIKITDFGLSK) in human PBMC at 1 uM
[19] = target: Mitogen-activated protein kinase 7 (Homo sapiens) (UniProt Q13164); test: Inhibition of Erk5 conserved Lys2 (DLKPSNLLVNENCELK) in human PBMC at 0.1 uM
[20] = target: Mitogen-activated protein kinase 14 (Homo sapiens) (UniProt Q16539); test: Inhibition of p38a conserved Lys2 (DLKPSNLAVNEDCELK) in human PBMC at 0.1 uM
Sequence of UniProt Q16539 (Q16539 whole entry): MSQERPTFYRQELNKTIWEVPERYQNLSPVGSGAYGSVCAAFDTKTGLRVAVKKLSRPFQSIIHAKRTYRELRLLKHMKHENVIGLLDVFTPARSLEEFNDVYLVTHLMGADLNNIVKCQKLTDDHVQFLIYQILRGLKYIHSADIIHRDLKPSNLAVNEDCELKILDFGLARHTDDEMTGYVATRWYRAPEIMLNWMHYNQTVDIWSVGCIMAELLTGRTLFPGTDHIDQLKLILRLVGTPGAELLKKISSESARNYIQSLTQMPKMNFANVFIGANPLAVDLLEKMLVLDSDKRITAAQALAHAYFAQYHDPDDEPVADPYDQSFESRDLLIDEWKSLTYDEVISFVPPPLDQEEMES

[21] = target: Mitogen-activated protein kinase 8 (Homo sapiens) (UniProt P45983); test: Inhibition of JNK1 conserved Lys2 (DLKPSNIVVK) in human PBMC at 1 uM
[22] = target: Ribosomal protein S6 kinase alpha-3 (Homo sapiens) (UniProt P51812); test: Inhibition of RSK2 domain2 conserved Lys2 (DLKPSNILYVDESGNPESIR) in human PBMC at 0.1 uM
[23] = target: Serine/threonine-protein kinase LATS2 (Homo sapiens) (UniProt Q9NRM7); test: Inhibition of LATS2 conserved Lys2 (DIKPDNILIDLDGHIK) in human PBMC at 1 uM
[24] = target: Mitogen-activated protein kinase 14 (Homo sapiens) (UniProt Q16539); test: Inhibition of p38a conserved Lys2 (DLKPSNLAVNEDCELK) in human PBMC at 1 uM
[25] = target: Mitogen-activated protein kinase kinase kinase 20 (Homo sapiens) (UniProt Q9NYL2); test: Inhibition of ZAK conserved Lys1 (WISQDKEVAVKK) in human PBMC at 1 uM
[26] = target: Serine/threonine-protein kinase ULK1 (Homo sapiens) (UniProt O75385); test: Inhibition of ULK1 conserved Lys2 (DLKPQNILLSNPAGR) in human PBMC at 0.1 uM
[27] = target: eIF-2-alpha kinase GCN2 (Homo sapiens) (UniProt Q9P2K8); test: Inhibition of GCN2 conserved Lys2 (DLKPVNIFLDSDDHVK) in human PBMC at 0.1 uM
Sequence of UniProt Q9P2K8 (Q9P2K8 whole entry): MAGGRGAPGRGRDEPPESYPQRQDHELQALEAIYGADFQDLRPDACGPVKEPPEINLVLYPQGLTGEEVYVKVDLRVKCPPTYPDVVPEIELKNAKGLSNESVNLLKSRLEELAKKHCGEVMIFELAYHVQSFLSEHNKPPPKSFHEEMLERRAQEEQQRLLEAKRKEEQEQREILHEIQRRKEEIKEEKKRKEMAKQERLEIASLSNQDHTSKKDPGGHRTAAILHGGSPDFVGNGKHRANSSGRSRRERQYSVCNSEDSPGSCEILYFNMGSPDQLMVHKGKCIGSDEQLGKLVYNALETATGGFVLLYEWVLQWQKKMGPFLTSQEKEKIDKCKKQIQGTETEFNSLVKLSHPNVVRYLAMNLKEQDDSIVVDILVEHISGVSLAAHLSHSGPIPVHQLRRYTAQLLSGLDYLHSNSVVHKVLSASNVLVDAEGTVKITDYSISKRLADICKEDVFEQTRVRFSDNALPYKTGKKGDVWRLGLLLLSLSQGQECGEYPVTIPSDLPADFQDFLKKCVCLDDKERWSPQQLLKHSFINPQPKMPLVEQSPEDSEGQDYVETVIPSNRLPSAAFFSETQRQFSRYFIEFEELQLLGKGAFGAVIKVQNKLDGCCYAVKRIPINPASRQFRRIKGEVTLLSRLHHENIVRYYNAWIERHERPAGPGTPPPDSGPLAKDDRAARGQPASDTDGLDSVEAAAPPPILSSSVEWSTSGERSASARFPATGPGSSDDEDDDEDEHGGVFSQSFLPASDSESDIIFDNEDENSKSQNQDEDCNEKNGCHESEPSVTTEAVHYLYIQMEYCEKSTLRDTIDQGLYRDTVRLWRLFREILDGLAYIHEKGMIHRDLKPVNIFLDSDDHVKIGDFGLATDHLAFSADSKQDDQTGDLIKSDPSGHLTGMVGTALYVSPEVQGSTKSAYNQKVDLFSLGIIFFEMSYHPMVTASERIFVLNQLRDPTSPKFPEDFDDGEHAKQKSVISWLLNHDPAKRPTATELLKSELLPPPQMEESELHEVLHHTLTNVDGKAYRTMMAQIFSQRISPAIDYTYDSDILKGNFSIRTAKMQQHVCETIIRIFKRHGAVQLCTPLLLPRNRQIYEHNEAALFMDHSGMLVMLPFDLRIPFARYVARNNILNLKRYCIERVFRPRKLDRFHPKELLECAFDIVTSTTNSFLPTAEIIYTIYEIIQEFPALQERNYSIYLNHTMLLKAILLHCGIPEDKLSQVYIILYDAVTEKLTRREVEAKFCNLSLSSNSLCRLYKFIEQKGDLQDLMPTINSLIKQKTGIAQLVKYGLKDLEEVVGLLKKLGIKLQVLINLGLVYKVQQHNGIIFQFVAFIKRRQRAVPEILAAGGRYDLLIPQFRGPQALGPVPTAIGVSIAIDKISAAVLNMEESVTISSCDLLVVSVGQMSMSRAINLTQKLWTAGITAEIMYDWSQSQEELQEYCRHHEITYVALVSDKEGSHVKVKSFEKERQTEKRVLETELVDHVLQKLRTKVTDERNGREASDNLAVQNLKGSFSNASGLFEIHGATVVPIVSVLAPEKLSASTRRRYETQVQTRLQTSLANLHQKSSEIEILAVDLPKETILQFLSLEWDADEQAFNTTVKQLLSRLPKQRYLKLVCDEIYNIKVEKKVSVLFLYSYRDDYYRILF

[28] = target: Serine/threonine-protein kinase WNK2 (Homo sapiens) (UniProt Q9Y3S1); test: Inhibition of Wnk2 conserved Lys2 (DLKCDNIFITGPTGSVK) in human PBMC at 1 uM
[29] = target: Mitogen-activated protein kinase 10 (Homo sapiens) (UniProt P53779); test: Inhibition of JNK3 conserved Lys2 (DLKPSNIVVK) in human PBMC at 1 uM
Sequence of UniProt P53779 (P53779 whole entry): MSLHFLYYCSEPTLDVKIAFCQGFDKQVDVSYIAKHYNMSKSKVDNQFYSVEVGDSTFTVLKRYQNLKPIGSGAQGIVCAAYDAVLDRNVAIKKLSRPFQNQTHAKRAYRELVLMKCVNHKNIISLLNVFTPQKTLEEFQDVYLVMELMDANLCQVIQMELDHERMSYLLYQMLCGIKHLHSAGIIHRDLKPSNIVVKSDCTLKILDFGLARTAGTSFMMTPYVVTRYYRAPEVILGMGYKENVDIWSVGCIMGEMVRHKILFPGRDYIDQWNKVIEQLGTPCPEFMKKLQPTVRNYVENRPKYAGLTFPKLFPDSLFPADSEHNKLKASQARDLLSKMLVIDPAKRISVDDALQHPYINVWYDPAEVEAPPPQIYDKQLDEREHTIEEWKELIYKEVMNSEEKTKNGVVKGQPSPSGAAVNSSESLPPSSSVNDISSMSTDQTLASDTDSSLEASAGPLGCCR

Sequence of UniProt P51812 (P51812 whole entry, the tested form may be a part): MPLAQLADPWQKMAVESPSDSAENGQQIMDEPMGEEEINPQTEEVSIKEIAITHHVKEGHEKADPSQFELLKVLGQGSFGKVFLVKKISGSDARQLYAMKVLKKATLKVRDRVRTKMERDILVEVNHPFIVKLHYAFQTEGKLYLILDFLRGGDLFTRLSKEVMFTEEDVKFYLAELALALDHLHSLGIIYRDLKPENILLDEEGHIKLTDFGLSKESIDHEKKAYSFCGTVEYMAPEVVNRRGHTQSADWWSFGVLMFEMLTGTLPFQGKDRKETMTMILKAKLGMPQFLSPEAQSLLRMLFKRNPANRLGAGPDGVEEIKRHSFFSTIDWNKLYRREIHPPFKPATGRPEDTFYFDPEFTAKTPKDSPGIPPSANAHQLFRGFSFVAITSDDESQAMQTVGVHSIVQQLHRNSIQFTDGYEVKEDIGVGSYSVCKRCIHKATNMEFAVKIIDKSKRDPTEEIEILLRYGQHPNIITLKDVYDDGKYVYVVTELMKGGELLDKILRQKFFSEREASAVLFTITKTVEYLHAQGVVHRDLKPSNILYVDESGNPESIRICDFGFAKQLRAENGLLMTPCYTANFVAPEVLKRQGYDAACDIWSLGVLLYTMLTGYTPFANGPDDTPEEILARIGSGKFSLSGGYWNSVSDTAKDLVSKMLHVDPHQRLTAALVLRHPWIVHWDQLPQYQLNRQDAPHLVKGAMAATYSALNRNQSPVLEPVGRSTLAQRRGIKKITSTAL

Q: With `CC(C)n1cc(-c2cc(-c3ccc(CN4CCOCC4)cc3)cnc2N)nn1` as the compound, how does the inhibition [1] read?
A: The inhibition was -6.6%.

Q: What about the inhibition [2] of the same compound?
A: Its inhibition is 17.1%.

Q: And the inhibition [3]?
A: The inhibition was 12.6%.

Q: What about the inhibition [4] of the same compound?
A: Its inhibition is 29.1%.

Q: And the inhibition [5]?
A: The inhibition was -4.9%.

Q: And the inhibition [6]?
A: Its inhibition is -8.1%.

Q: What about the inhibition [7] of the same compound?
A: The inhibition was 2.5%.

Q: What about the inhibition [8] of the same compound?
A: Its inhibition is 5%.

Q: What about the inhibition [9] of the same compound?
A: Its inhibition is -5.8%.

Q: And the inhibition [10]?
A: Its inhibition is 10.4%.

Q: And the inhibition [11]?
A: The inhibition was 10.9%.

Q: And the inhibition [12]?
A: Its inhibition is -6.4%.

Q: And the inhibition [13]?
A: Its inhibition is 10.1%.

Q: What about the inhibition [14] of the same compound?
A: Its inhibition is -0.3%.

Q: What about the inhibition [15] of the same compound?
A: The inhibition was -5.2%.

Q: What about the inhibition [16] of the same compound?
A: Its inhibition is 7.7%.

Q: And the CLint scaled [17]?
A: The CLint scaled was 20 mL/min/kg.

Q: And the inhibition [18]?
A: Its inhibition is 20.3%.

Q: And the inhibition [19]?
A: The inhibition was 27.5%.

Q: And the inhibition [20]?
A: Its inhibition is 22.3%.

Q: And the inhibition [21]?
A: Its inhibition is 23.9%.

Q: What about the inhibition [22] of the same compound?
A: The inhibition was -0.7%.

Q: What about the inhibition [23] of the same compound?
A: The inhibition was -2.3%.

Q: What about the inhibition [24] of the same compound?
A: Its inhibition is 33.9%.

Q: What about the inhibition [25] of the same compound?
A: Its inhibition is 8%.

Q: What about the inhibition [26] of the same compound?
A: The inhibition was 17.2%.

Q: And the inhibition [27]?
A: Its inhibition is -3.3%.

Q: What about the inhibition [28] of the same compound?
A: Its inhibition is 2.2%.

Q: And the inhibition [29]?
A: The inhibition was 23.9%.
